# The list shows a part of the results. These are noisy estimates, calculated here from bound and input reads.
# Biological target: T1, Pho4 (S. cerevisiae) (UniProt P07270)
# T1 sequence: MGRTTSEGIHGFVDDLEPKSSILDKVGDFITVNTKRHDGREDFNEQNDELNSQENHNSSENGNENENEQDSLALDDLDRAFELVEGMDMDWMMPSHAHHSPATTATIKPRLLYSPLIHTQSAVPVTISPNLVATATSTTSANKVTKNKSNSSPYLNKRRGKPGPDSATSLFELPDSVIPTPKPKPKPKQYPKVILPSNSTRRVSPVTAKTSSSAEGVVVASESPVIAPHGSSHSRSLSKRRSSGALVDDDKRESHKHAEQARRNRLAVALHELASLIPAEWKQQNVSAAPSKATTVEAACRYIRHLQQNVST
# Experiment: relative binding free energy (BET-seq); higher = weaker binding
# Settings: reference: library average
row,Sequence,relative binding free energy
1,GTTTGCACGTGCTTGT,-0.03 kcal/mol
2,GTATTCACGTGCAATT,0.41 kcal/mol
3,TTGAGCACGTGTAGTC,-0.06 kcal/mol
4,AGGGTCACGTGCTCGG,0.2 kcal/mol
5,ATGGCCACGTGGGAAG,-0.21 kcal/mol
6,GGGAACACGTGGTGTG,-0.01 kcal/mol
7,TTATACACGTGGTCTG,-0.04 kcal/mol
8,GGAGGCACGTGCTGCG,-0.26 kcal/mol
9,CTAGGCACGTGGAGGA,-0.11 kcal/mol
10,TCCTGCACGTGTTGTG,0.03 kcal/mol
11,GGGTCCACGTGGTGAT,0.09 kcal/mol
12,GGGTGCACGTGGGCGT,-0.01 kcal/mol
13,AGGCGCACGTGGCGAG,-0.08 kcal/mol
14,AGATCCACGTGGAGGG,-0.11 kcal/mol
15,CGCTTCACGTGTGGTT,0.32 kcal/mol
16,TACAACACGTGTTTTG,0.04 kcal/mol
17,TTAATCACGTGGTGGT,0.03 kcal/mol
18,GTATTCACGTGTTCTG,0.14 kcal/mol
19,GATGGCACGTGGGGGC,-0.16 kcal/mol
20,GTGAGCACGTGATGGA,0.21 kcal/mol
21,TAAGGCACGTGAAGAT,0.11 kcal/mol
22,GGGAGCACGTGGCGTC,-0.1 kcal/mol
23,TGATACACGTGTGGTT,0.07 kcal/mol
24,ATAGTCACGTGTGCTG,-0.05 kcal/mol
25,TGAATCACGTGGTAGG,0.17 kcal/mol
26,TGCGTCACGTGGATAG,-0.03 kcal/mol

row,Sequence,relative binding free energy
1,CAGTACACGTGGGGGC,-0.08 kcal/mol
2,AGGGGCACGTGATTAG,-0.12 kcal/mol
3,GTCATCACGTGGGAGA,0.14 kcal/mol
4,GCTATCACGTGGAGTT,0.15 kcal/mol
5,GTTTTCACGTGCGGCT,0.24 kcal/mol
6,CGGAGCACGTGCGGGG,-0.14 kcal/mol
7,ATTTACACGTGCGGGG,0.16 kcal/mol
8,TACAGCACGTGGGGTG,-0.24 kcal/mol
9,TTTTGCACGTGCAGAG,0 kcal/mol
10,AGTGGCACGTGGAGGC,-0.19 kcal/mol
11,CACGTCACGTGTGTTT,0.15 kcal/mol
12,TGGTTCACGTGTTTAG,0.29 kcal/mol
13,GAGGACACGTGGACGG,0.08 kcal/mol
14,TGAGCCACGTGGTGAG,-0.1 kcal/mol
15,TTGTGCACGTGGACAG,-0.06 kcal/mol
16,ACCTGCACGTGGGTGG,-0.12 kcal/mol
17,GGGACCACGTGGCGGT,-0.12 kcal/mol
18,TATGTCACGTGGTGTC,-0.03 kcal/mol
19,TGCGGCACGTGACTTG,0.04 kcal/mol
20,AGGGGCACGTGATTGT,0.08 kcal/mol
21,GGAGCCACGTGTTTGT,0.14 kcal/mol
22,AATTGCACGTGAATTG,0.31 kcal/mol
23,TAGAGCACGTGGATCG,0.01 kcal/mol
24,ATGATCACGTGGTGTA,0.12 kcal/mol
25,TGTTACACGTGACTTG,0.18 kcal/mol
26,GTTTTCACGTGAGCTT,0.31 kcal/mol

row,Sequence,relative binding free energy
1,ATCAACACGTGGTTGG,0 kcal/mol
2,TTTCTCACGTGGAGGA,0.29 kcal/mol
3,GGTCTCACGTGAAGGG,0.24 kcal/mol
4,TATATCACGTGTTTTC,0.1 kcal/mol
5,AACGGCACGTGTTCGG,0.05 kcal/mol
6,CCAGGCACGTGGGTGG,-0.24 kcal/mol
7,TGATGCACGTGGCCGG,-0.15 kcal/mol
8,TTGGTCACGTGGGTTA,0 kcal/mol
9,GGCTTCACGTGCTGGT,0.22 kcal/mol
10,GTCGTCACGTGGATGT,0.08 kcal/mol
11,TGAGCCACGTGATTGT,0.15 kcal/mol
12,TTCTACACGTGAGATG,0.43 kcal/mol
13,ATGGGCACGTGCAGGA,-0.03 kcal/mol
14,TTCAACACGTGGGTTT,-0.04 kcal/mol
15,ATAGGCACGTGGGCGA,-0.18 kcal/mol
16,ATGTTCACGTGCGCTT,0.21 kcal/mol
17,TTTGGCACGTGAAGAT,0.21 kcal/mol
18,CGTTGCACGTGCAGGG,-0.03 kcal/mol
19,ATGTTCACGTGTTTTG,0.1 kcal/mol
20,AATGTCACGTGAAGTT,0.35 kcal/mol
21,TAAAACACGTGTATGT,-0.03 kcal/mol
22,GGCTGCACGTGGTGGT,0.02 kcal/mol
23,ATCTGCACGTGGAAGT,0.1 kcal/mol
24,GTTTACACGTGTGAGG,0.21 kcal/mol
25,ATGGTCACGTGGATGC,0.11 kcal/mol
26,ATCGACACGTGGTGTG,-0.11 kcal/mol

row,Sequence,relative binding free energy
1,CTGTACACGTGGGTTT,0.02 kcal/mol
2,AAGGTCACGTGACGGG,0.2 kcal/mol
3,GAAGACACGTGATGTT,0.23 kcal/mol
4,GGCATCACGTGGGAAG,0.22 kcal/mol
5,GATTACACGTGGGAGT,0.13 kcal/mol
6,TTTTACACGTGGGCTG,-0.03 kcal/mol
7,GTATGCACGTGCCGTT,-0.01 kcal/mol
8,ATGGTCACGTGTCTGG,0.07 kcal/mol
9,CGATACACGTGGAGTT,0.12 kcal/mol
10,CGTGGCACGTGAGGTC,0.07 kcal/mol
11,TGTATCACGTGAGCAT,0.24 kcal/mol
12,CTGGGCACGTGTGAAG,0.04 kcal/mol
13,GTGTACACGTGCAGTG,0.01 kcal/mol
14,AGGAACACGTGGCAGG,-0.06 kcal/mol
15,TCAGGCACGTGAGAGT,0.24 kcal/mol
16,TGCAGCACGTGCGGGT,-0.14 kcal/mol
17,GGGGGCACGTGGGCTC,-0.08 kcal/mol
18,ATCAGCACGTGGCGGG,-0.04 kcal/mol
19,GGTTGCACGTGTGCAT,-0.05 kcal/mol
20,GACTTCACGTGTGATT,0.49 kcal/mol
21,TGTCGCACGTGTTTAG,-0.06 kcal/mol
22,GGGTTCACGTGGACGC,0.36 kcal/mol
23,TCGGGCACGTGGTAGT,-0.14 kcal/mol
24,AGTGCCACGTGTGCGA,0 kcal/mol
25,GTAATCACGTGGTGAA,0.13 kcal/mol
26,TTGTTCACGTGCTTCT,0.34 kcal/mol

row,Sequence,relative binding free energy
1,TGTTGCACGTGGTCTA,-0.14 kcal/mol
2,TTTCACACGTGTGCTG,0.18 kcal/mol
3,TATTGCACGTGAGCGT,-0.11 kcal/mol
4,ATATGCACGTGTGGAT,0.06 kcal/mol
5,GGCGTCACGTGGAGTG,0.15 kcal/mol
6,GTTCTCACGTGGAGGG,0.25 kcal/mol
7,TTTCTCACGTGTTGGG,0.31 kcal/mol
8,AGTGACACGTGGCGGG,0 kcal/mol
9,GTGTACACGTGTGTGC,0.04 kcal/mol
10,GATATCACGTGGAGGA,0.19 kcal/mol
11,GTGTGCACGTGGGTTC,-0.02 kcal/mol
12,TTTAACACGTGTTGTA,-0.07 kcal/mol
13,TGGTTCACGTGGGGTT,0.21 kcal/mol
14,ATTAACACGTGTTATG,0 kcal/mol
15,TTTTACACGTGTTGTC,0.1 kcal/mol
16,TTTGCCACGTGATGTT,0.14 kcal/mol
17,TTAATCACGTGCTATG,0.05 kcal/mol
18,CTGGGCACGTGGAGAA,-0.01 kcal/mol
19,TTTTCCACGTGGGGTC,-0.06 kcal/mol
20,ATCTACACGTGTTAGG,0 kcal/mol
21,TGTGGCACGTGCCGGC,-0.14 kcal/mol
22,CGTGGCACGTGGATTG,-0.09 kcal/mol
23,AAGGTCACGTGTAGGA,-0.02 kcal/mol
24,TATGGCACGTGTCAAG,-0.02 kcal/mol
25,TTAGCCACGTGGTAAA,0.12 kcal/mol
26,TAGGCCACGTGTGGTG,-0.16 kcal/mol

row,Sequence,relative binding free energy
1,ATCGGCACGTGTTGGC,0.02 kcal/mol
2,AAGTTCACGTGTCAGG,0.38 kcal/mol
3,GATTTCACGTGGGACT,0.29 kcal/mol
4,AGGATCACGTGGGAGA,-0.08 kcal/mol
5,TGCAGCACGTGGTGAG,-0.04 kcal/mol
6,AGAGGCACGTGGAGGA,-0.02 kcal/mol
7,GGTGTCACGTGGTGCG,0.06 kcal/mol
8,GGGCACACGTGGATTT,0.19 kcal/mol
9,TGTCACACGTGTTTTT,0.08 kcal/mol
10,CTGTACACGTGCGGTG,0.1 kcal/mol
11,ATTAGCACGTGGCGGT,-0.12 kcal/mol
12,ATTTACACGTGTAAGT,0.16 kcal/mol
13,TTGGACACGTGTCTAT,0.19 kcal/mol
14,GGTATCACGTGCGGTC,0.19 kcal/mol
15,GGAATCACGTGGAGCG,0.33 kcal/mol
16,AGGTACACGTGTCATT,0.06 kcal/mol
17,GTGGGCACGTGGGCCG,-0.17 kcal/mol
18,TTTGACACGTGGTTTC,0 kcal/mol
19,AAGGACACGTGGCTGG,0.15 kcal/mol
20,CGATGCACGTGGGGGA,-0.21 kcal/mol
21,TAGCTCACGTGGTAAT,0.24 kcal/mol
22,TGCTTCACGTGTTCTG,0.14 kcal/mol
23,AAAGGCACGTGGTTCG,-0.19 kcal/mol
24,ATATGCACGTGATGTT,0.03 kcal/mol
25,TTAGTCACGTGACAGT,0.21 kcal/mol
26,ATTAGCACGTGATAGG,0.06 kcal/mol

row,Sequence,relative binding free energy
1,TGATGCACGTGGGTTA,-0.19 kcal/mol
2,ATTTCCACGTGGCTTT,0.06 kcal/mol
3,GGTGGCACGTGCTTGC,0 kcal/mol
4,GCGTGCACGTGTCGTT,0.07 kcal/mol
5,TAACGCACGTGGATTG,0.02 kcal/mol
6,ATTTACACGTGATGGT,0.28 kcal/mol
7,GGAGCCACGTGAGTTT,0.27 kcal/mol
8,GAAGACACGTGATGGG,0.25 kcal/mol
9,TAGATCACGTGTAGTT,0.21 kcal/mol
10,TAATTCACGTGGAGGA,0.22 kcal/mol
11,AGGTTCACGTGTTTTC,0.33 kcal/mol
12,ATGGACACGTGATGAA,0.25 kcal/mol
13,TTTGGCACGTGGACGG,-0.06 kcal/mol
14,TGCCGCACGTGGCGGG,-0.14 kcal/mol
15,GTTGGCACGTGAACGG,0.15 kcal/mol
16,AATCTCACGTGGGGGT,0.11 kcal/mol
17,TGTTGCACGTGCTGAG,-0.04 kcal/mol
18,CGTTCCACGTGAGGTG,0.21 kcal/mol
19,GGTGCCACGTGAATGG,0.06 kcal/mol
20,TGGGGCACGTGGCCTT,-0.22 kcal/mol
21,TGGACCACGTGCAGGG,0.05 kcal/mol
22,CGTGGCACGTGTGCAG,-0.17 kcal/mol
23,GAGGTCACGTGGAAGT,0.23 kcal/mol
24,TTTCTCACGTGTACGG,0.2 kcal/mol
25,TGAGACACGTGTCATT,0.07 kcal/mol
26,ATGAACACGTGTATTG,-0.01 kcal/mol

row,Sequence,relative binding free energy
1,GTGCACACGTGTAGGA,0.13 kcal/mol
2,GGATGCACGTGGTTCG,0.06 kcal/mol
3,AGAATCACGTGTATGT,0.09 kcal/mol
4,AGGCGCACGTGGTAGT,-0.42 kcal/mol
5,GTTAACACGTGTGAGT,0.22 kcal/mol
6,GAGTTCACGTGCGTGT,0.3 kcal/mol
7,TGGGTCACGTGTGGAC,0.16 kcal/mol
8,TGTTCCACGTGGGGTC,-0.1 kcal/mol
9,GATTACACGTGTTTGG,0.17 kcal/mol
10,GGATGCACGTGAGGGT,0.28 kcal/mol
11,TGGTTCACGTGTCACG,0.25 kcal/mol
12,AAAGGCACGTGTTAAT,0.1 kcal/mol
13,AGAATCACGTGTGTGA,0.14 kcal/mol
14,TGGTACACGTGGCGTT,0 kcal/mol
15,ATTCTCACGTGTGTAA,0.31 kcal/mol
16,AATGGCACGTGCCTGG,-0.23 kcal/mol
17,GTATACACGTGATGTA,0.18 kcal/mol
18,CTCGTCACGTGAGGTG,0.32 kcal/mol
19,CTATACACGTGAAGGG,0.31 kcal/mol
20,AAACTCACGTGGGGGG,0.12 kcal/mol
21,GGTTCCACGTGAGGGC,0.24 kcal/mol
22,AGTATCACGTGGATAG,0.09 kcal/mol
23,AGCGGCACGTGAGCGT,0.04 kcal/mol
24,GTGCTCACGTGGTTTT,0.29 kcal/mol
25,TATGTCACGTGTCATT,0.01 kcal/mol
26,TTGATCACGTGAGTCA,0.32 kcal/mol

row,Sequence,relative binding free energy
1,CCGGGCACGTGTGATG,-0.06 kcal/mol
2,GATTGCACGTGAGGTT,0.34 kcal/mol
3,TGATTCACGTGCATGG,0.11 kcal/mol
4,AGTTTCACGTGTGTCT,0.33 kcal/mol
5,GGTGGCACGTGAGCTT,0.13 kcal/mol
6,AATGACACGTGTGTTG,0.03 kcal/mol
7,AAGGTCACGTGGATGA,-0.02 kcal/mol
8,CGTCACACGTGAGGGT,0.2 kcal/mol
9,GTATTCACGTGTGGAC,0.38 kcal/mol
10,AAGTACACGTGAAGGT,0.38 kcal/mol
11,TGTACCACGTGGGTTA,0.06 kcal/mol
12,GATAGCACGTGTGGCG,-0.02 kcal/mol
13,GGCATCACGTGATTGG,0.34 kcal/mol
14,GATGGCACGTGACTGG,0.1 kcal/mol
15,TCAACCACGTGGGGGG,-0.02 kcal/mol
16,CGGTTCACGTGATGGG,0.4 kcal/mol
17,AATTACACGTGGTCGA,0.17 kcal/mol
18,GAGGACACGTGGAATT,0.29 kcal/mol
19,ATTCTCACGTGAGGTA,0.35 kcal/mol
20,AATGGCACGTGTATGC,0.04 kcal/mol
21,ATTTACACGTGTTACG,0.03 kcal/mol
22,GAAAGCACGTGTGGCT,0.06 kcal/mol

# — the BET-seq Pho4 binding data (Le et al. 2018)
